“And” between values parts separate entries of the source, which are not always exact repeats. Identical values can stand only once.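 Growth conditions: 96-well plates. Treatment: test compound, 48 hours, 5 concentrations. Analysis: linear interpolation between bracketing concentrations; unreached endpoints set to highest concentration. GI50 marks 50% less growth. TGI: concentration producing complete growth inhibition.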 Peptide text beside a SMILES is read from it. * marks the point of attachment. Cbz = O=C(OCc1ccccc1)*; Boc = CC(C)(C)OC(=O)*; OSu = O=C1CCC(=O)N1O*; Bn = c1ccc(C*)cc1
system: NCI-H322M lung; test: NCI tumour cell line growth inhibition, 48 h

| SMILES | TGI | GI50 |
| --- | --- | --- |
| O=c1cccccc1[O-].O=c1cccccc1[O-].O=c1cccccc1[O-].[Sm+3] | > 100 µM | – |
| C#CC#CC#CC#CC#CC#CC#CC#CC[C@@H]1OC[C@@H](COC(=O)O[C@@H](C(=O)O[C@H]2C[C@@]3(O)[C@@H](OC(=O)c4ccccc4)[C@@H]4[C@]5(OC(C)=O)CO[C@@H]5C[C@H](O)[C@@]4(C)C(=O)[C@H](OC(C)=O)C(=C2C)C3(C)C)[C@@H](NC(=O)c2ccccc2)c2ccccc2)O1 | > 33.3 µM | 0.448 µM |
| CCN(CC)CCOc1ccc2c(C)c(C(=O)OC)oc2c1C(=O)/C=C/c1ccc(OC)cc1 | 4.07 µM | 1.37 µM |
| N#CCC1(n2cc(-c3ncnc4[nH]ccc34)cn2)CN(C2CCN(C(=O)c3ccnc(C(F)(F)F)c3F)CC2)C1 | > 100 µM | > 100 µM |
| N#Cc1c(N)nc(Sc2ccccc2N)c(C#N)c1-c1ccccc1 | > 100 µM | – |
| C[n+]1c2ccccc2c(C(=O)Nc2ccc(S(=O)(=O)Nc3ncccn3)cc2)c2ccccc21 | > 100 µM | – |
| COc1ccc(/C=C\c2cc(OC)c(OC)c(OC)c2)c(NS(=O)(=O)c2ccc(C(C)(C)C)cc2)c1O | 25.5 µM | 6.95 µM |
| NC(N)=N/N=C/c1c(-c2ccc(Cl)c([N+](=O)[O-])c2)nc2sc3ccccc3n12 | 1.81 µM | 0.762 µM |
| Nc1ncnc2c1nc(Cl)n2C1OC(CO)C(O)C1O (stereo unspecified) | > 100 µM | – |
| COc1ccc(N=Nc2c(N)nn3c(SC)c(C#N)c(N)nc23)cc1 | 28.8 µM | – |
| C[C@]12CCC3=NCCN3C1=CC[C@@H]1[C@@H]2CC[C@@]2(C)[C@H]1CC[C@]2(C)O | > 100 µM | – |
| CC1=C(CNO)C2=C(C)C3(CC3)[C@@](C)(O)C(=O)C2=C1 | 5.46 µM | 1.32 µM |
| CC(C)(C)OC(=O)NC(Cc1ccc(OCc2ccccc2)cc1)C(=O)NC(CCCCNC(=O)OCc1ccccc1)C(=O)NC(CCCCNC(=O)OCc1ccccc1)C(=O)ON1C(=O)CCC1=O (stereo unspecified) (Boc-Tyr(Bn)-Lys(Cbz)-Lys(Cbz)-OSu; configuration not given here) | > 100 µM | – |
| COc1ccc(/C=N/Nc2nnc3c(n2)c2ccccc2c2nn(-c4ccccc4Cl)nc23)cc1 | > 100 µM | – |
| COc1cc(CCc2ccc(OC(C)=O)cc2)cc(OC)c1OC | > 100 µM | – |
| N#CC(NNC(=O)c1ccccc1O)c1c(O)ccc2ccccc12 (stereo unspecified) | > 83.3 µM | – |
| Cn1ccnc1C(=O)/C=C/c1ccc(C(=O)Nc2c(F)c(F)c(F)c(F)c2F)cc1 | 3.03 µM | 1.52 µM |
| Cc1ccc(-n2cc(-c3ccc(Cl)cc3)c3c(=N)n(N)cnc32)cc1 | 27.4 µM | – |
| COc1cc(/C=C2\C(=O)N(C)c3ccccc32)cc(OC)c1OC | 75.9 µM | 23.4 µM |
| CC1CC(C)C(C(O)CC2CC(=O)N(c3ccccc3)C(=O)C2)C(O)C1 (stereo unspecified) | > 100 µM | – |
| Cc1ccccc1Nc1nc2ccccc2nc1NS(=O)(=O)c1ccccc1 | > 100 µM | – |
| CCC(=C/[C@H](C)C/C=C/C(C)=C/[C@@H](C)C(=O)[C@@H](C)[C@H](O)[C@@H](C)CC)/C=C/[C@H]1CC=CC(=O)O1 | 12 µM and 13.1 µM | – |
| C/C(CC(=O)Nc1cccc([N+](=O)[O-])c1)=N\NC(=O)C[n+]1ccccc1 | > 100 µM | – |

| SMILES | TGI | GI50 |
| --- | --- | --- |
| O=C(O)/C=C/c1ccncc1 | > 100 µM | – |
| C#Cc1cccc(NC(=O)C2CCCN(C(=O)CCl)C2)c1 (stereo unspecified) | > 82.5 µM | > 82.5 µM |
| CCC1CN2CCc3c([nH]c4ccccc34)[C@@](C(=O)OC)(c3cc4c(cc3OC)N(C)C3C(O)(C(=O)OC)C(C(=O)OC)C5(CC)C=CCN6CCC43C65)C[C@@H](C2)[C@@H]1C(C)(C)C (stereo partly specified) | > 10 µM | – |
| CN(/N=C\c1ccc2ccccc2c1)C1=NCCCN1 | 51 µM | – |
| COC(=O)C1CCC(=O)N1/C(C)=N/NC(=O)Nc1ccc(Cl)c(Cl)c1 (stereo unspecified) | > 100 µM | – |
| CC(=O)NN(c1ccccc1)C1CCN(c2ccccc2)N1C(C)=O (stereo unspecified) | > 10 µM | – |
| COc1cccc(CCCNC(=O)Cc2ccccc2CO)c1 | > 100 µM | – |
| CC1(C)CC[C@]2(C(=O)O)CC[C@]3(C)C(=CC[C@@H]4[C@@]5(C)C/C(=C/c6ccco6)C(=O)C(C)(C)[C@@H]5CC[C@]43C)[C@@H]2C1 | 21.9 µM | 3.31 µM |
| CC(C)=CCc1c2c(c(O)c3c(=O)c4c(oc13)-c1ccc(O)cc1OC4C=C(C)C)C=CC(C)(C)O2 (stereo unspecified) | 29.1 µM | – |
| O=C(NCc1ccccc1Cl)c1c(O)c2ccccc2[nH]c1=O | > 100 µM | – |
| O=C(O)CCC1NC(/C(=C/c2ccccc2O)NC(=O)c2ccccc2)OC1=O (stereo unspecified) | > 100 µM | – |
| COc1cccc(N=NN2CCCC2)c1 | > 100 µM | – |
| COC(=O)c1ccc2[nH]c(O)c(C(=Nc3ccc(N(C)C(=O)CN4CCN(C)CC4)cc3)c3ccccc3)c2c1 | 4.7 µM | 1.17 µM |
| CC(C)=CCC/C(C)=C/C=C/C(C)=C/C1C[C@@]2(C(O)O1)[C@H](CCCO)/C(=C(/C)C=O)CC[C@]2(C)O (stereo partly specified) | 25.4 µM | – |
| CC(C)=CCCC1(C)C2COC(=O)C21 (stereo unspecified) | > 100 µM | – |
| N#CC(NC(=O)CCl)=C(Cl)Cl | 3.15 µM | 1.68 µM |
| Oc1ccc(SCc2cc(O)ccc2O)cc1 | > 100 µM | – |
| COc1ccc(Cc2nc3cc(OC)c(OC)cc3c(=O)[nH]2)cc1 | 32.6 µM | 3.97 µM |
| O=c1nc2[nH]c3c(-c4n[nH]c(=O)[nH]c4=O)cccc3c2n[nH]1 | > 100 µM | > 100 µM |
| Oc1ccccc1C=Nc1nc(OCc2ccccc2)nc2[nH]ncc12 | 50.4 µM | 18.1 µM |
| O=C(c1ccccc1)C(Br)C(Br)c1ccccc1 (stereo unspecified) | 30.4 µM | 16.1 µM |
| CCOC(=O)C1CCC(=O)N1C(=O)c1ccc(Cl)cc1 (stereo unspecified) | > 100 µM | – |
| CC(=O)[O-].[Mn+3].[O-]c1ccc(Cl)cc1C=NCCN=Cc1cc(Cl)ccc1[O-] | > 100 µM | > 100 µM |

| SMILES | TGI | GI50 |
| --- | --- | --- |
| S=c1[nH]n2c(COc3cc(Cl)c(OCc4nnc5sc(=S)[nH]n45)cc3Cl)nnc2s1 | > 100 µM | – |
| OCC(O)C(O)C(O)C(O)c1nn[nH]n1 (stereo unspecified) | > 100 µM | – |
| COc1ccc(OC)c2c(=O)c3ccccc3[nH]c12 | > 100 µM | – |
| CC[C@@]1(O)C(=O)OCc2c1cc1n(c2=O)Cc2c-1nc1ccccc1c2C=Nc1ccccc1N[C@@H]1c2cc3c(cc2[C@@H](c2cc(OC)c(O)c(OC)c2)[C@H]2C(=O)OC[C@@H]21)OCO3 | > 42.5 µM | 1.52 µM and 0.348 µM |
| NC(=O)c1ncn(C2OC(CO)C(O)C2O)c1N (stereo unspecified) | > 100 µM | > 100 µM |
| COc1cc(N(CCC#N)CCC#N)ccc1/C(N=Nc1ccc(C(=O)O)cc1)=N/NC(=O)c1cc(Br)ccc1O | > 150 µg/mL | 132 µg/mL |
| O=C(Nc1ccc(C(F)(F)F)cc1[N+](=O)[O-])c1cccnc1 | > 100 µM | – |
| CCOC(=O)c1csc(NC(=O)C(C)N2CCOCC2)n1 (stereo unspecified) | > 100 µM | – |
| COC(=O)C(=O)C(C(=O)C(=O)Nc1ccc(C)c(C)c1)c1nc2ccc([N+](=O)[O-])cc2[nH]c1=O (stereo unspecified) | > 100 µM | – |
| COC(=O)c1ccccc1C1CN=NC12Cc1c(C)ccc(C)c1C2=O (stereo unspecified) | > 100 µM | – |
| COc1ccc(C(=O)O/N=C2/CCCCC2CN(C)C)cc1 (stereo unspecified) | > 100 µM | – |
| CCSc1ncc(Br)c(Sc2nc(N)nc3nc[nH]c23)n1 | > 100 µM | 5.99 µM |
| CCCCCCCc1ccc(-c2nnc(N=Nc3ccc(OCCCCC)cc3)s2)s1 | > 100 µM | – |
| O=C1CNN=C(Cn2nc(-c3ccccc3)c3ccccc3c2=O)N1 | > 100 µM | – |
| COC(=O)[C@H](Cc1cn(C)cn1)NC(=O)[C@@H](NC(=O)Nc1cc(C(F)(F)F)cc(C(F)(F)F)c1)C(C)C | > 10 µM | > 10 µM |
| C#CCOC(=O)C(=[N+]=[N-])C(=O)CC(C)C | > 10 µM | – |
| CC1=CCN(c2ccccn2)OC1c1ccccc1 (stereo unspecified) | > 100 µM | – |
| O=C(N/N=C/c1ccc(F)cc1)c1ccc(C(F)(F)F)nc1Nc1cccc(C(F)(F)F)c1 | 3.79 µM | 0.633 µM |
| NC(Cc1ccccc1CP(=O)(O)O)C(=O)O (stereo unspecified) | > 100 µM | – |
| S=c1[nH]nc(CCCCCCCCc2n[nH]c(=S)o2)o1 | > 100 µM | – |
| Clc1cc2ncn(C3CCCCO3)c2cc1Cl (stereo unspecified) | > 100 µM | – |
| CC[C@@]12CCC(=S)N(CCSc3ccccc3)[C@@H]1c1c(n(S(=O)(=O)c3ccc(OC)cc3)c3ccccc13)CC2 | > 100 µM | – |
| Cc1ccc(S(=O)(=O)N2CCC(C(=O)O)(c3ccccc3)CC2)cc1 | > 100 µM | – |

| SMILES | TGI | GI50 |
| --- | --- | --- |
| CC1CCCN1CCCOC(=O)c1ccc(OC2C=CCCC2)cc1 (stereo unspecified) | > 100 µM | – |
| O=C(O)Cn1ccc(=O)c2cc([N+](=O)[O-])ccc21 | > 100 µM | – |
| COCC1N=C(c2cc(OC)c(OC)c(OC)c2-c2cc3c(cc2[C@H](C)O)OCO3)O[C@H]1c1ccccc1 (stereo partly specified) | > 100 µM | – |
| CN(C)c1ccc(O[Si](Oc2ccc(N(C)C)cc2)(Oc2ccc(N(C)C)cc2)Oc2ccc(N(C)C)cc2)cc1 | > 100 µM | – |
| c1cncc([O][Ge]([O]c2cccnc2)([O]c2cccnc2)[O]c2cccnc2)c1 | > 100 µM | > 100 µM |
| C[n+]1c(-c2ccc(/C=N/NC(=O)C(=O)N/N=C/c3ccc(-c4cn5ccccc5[n+]4C)cc3)cc2)cn2ccccc21 | > 100 µM | – |
| COc1ccc(-c2cc(-c3ccccc3)nc(NCCNc3ccnc4cc(Cl)ccc34)n2)cc1 | 3.12 µM | 1.57 µM |
| COc1ccc(/C(C)=C(\c2ccc(Cl)cc2)c2ccc(OCCN3CCCCCC3)cc2)cc1F | > 16.7 µM | 5.52 µM |
| CC(=O)[C@]1(O)Cc2c(O)c3c(c(O)c2[C@@H](OC2CC(N)C(O)C(C)O2)C1)C(=O)c1c(OCc2ccccc2)cccc1C3=O (stereo partly specified) | 8.22 µM | – |
| O=C(C(=O)c1cc(Br)ccc1O)c1cc(Br)ccc1O | 6.74 µM | 2.46 µM |
| c1cncc(C2ONC3=NCCN32)c1 (stereo unspecified) | > 100 µM | 35.5 µM |
| OCCCCC#Cc1ccccc1C#Cc1ccc(C(F)(F)F)cc1 | 26.2 µM | 13.1 µM |
| CCOC(=O)c1cn(CC)c2ccc3c(c2c1=O)S(=O)(=O)C=C3 | > 100 µM | – |
| CC1OC(OC2C(O[C@H]3CC[C@@]4(C)C(=CC[C@H]5[C@@H]6C[C@@H]7O[C@]8(CC[C@@H](C)CO8)[C@@H](C)[C@@H]7[C@@]6(C)CC[C@@H]54)C3)OC(CO)C(OC3OC(CO)C(O)C3O)C2O)C(O)C(O)C1O (stereo partly specified) | 2.11 µM and 1.8 µM | 0.59 µM |
| Cc1ccnc(Nc2ccc([N+](=O)[O-])c(NCCN3CCOCC3)n2)c1 | 69.3 µM | 0.0505 µM and 0.0463 µM |
| CCCCCCCCCCCCCCCC(=O)OCC1OC(n2cc(F)c(=O)[nH]c2=O)C(NC(=O)N(CCCl)N=O)C(O)C1O (stereo unspecified) | 15.8 µM | – |
| O=S(=O)(O)c1cc(O)c(N=Nc2ccc3ccccc3c2O)c2ccccc12 | > 100 µM | – |
| c1ccc(Nc2nnc(CCCCCCCCc3nnc(Nc4ccccc4)o3)o2)cc1 | > 100 µM | – |
| O=c1[nH]c2ccc([N+](=O)[O-])cc2nc1/C(=N/Nc1ccccc1)C(O)c1ccco1 (stereo unspecified) | > 100 µM | – |
| O=C(OC[C@@H]1CO1)c1cccc2c(=O)c3ccccc3[nH]c12 | 6.4 µM | 1.66 µM |

From PubChem BioAssay (NCI)
